Results as given in PubChem BioAssay AID1346428 (National Center for Advancing Translational Sciences (NCATS), 2018).
About 1,200 (2.5%) of roughly 48,000 compounds were called active. Roughly 2% stayed inconclusive and do not appear here.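 Rule for the calls: active = activation of at least 60% and not above a set upper limit (about 1 call in 100 departs from these limits); inconclusive = activation of 40% to 60%, or above that upper limit; inactive = activation under 40%.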 This is one part of the list.
Note: 0% is about no effect.

The molecules below were run against Probable G-protein coupled receptor 32 (Homo sapiens) (UniProt O75388) (assay: qHTS for Agonists of Human Resolvin D1 Receptor DRV1). Conditions: CHO-K1 GPR32 beta-arrestin PathHunter luminescence, 90 min; at 76.9 µM; active compounds read high; zero percent set by DMSO-only wells.
UniProt O75388, sequence (O75388 whole entry, looked up): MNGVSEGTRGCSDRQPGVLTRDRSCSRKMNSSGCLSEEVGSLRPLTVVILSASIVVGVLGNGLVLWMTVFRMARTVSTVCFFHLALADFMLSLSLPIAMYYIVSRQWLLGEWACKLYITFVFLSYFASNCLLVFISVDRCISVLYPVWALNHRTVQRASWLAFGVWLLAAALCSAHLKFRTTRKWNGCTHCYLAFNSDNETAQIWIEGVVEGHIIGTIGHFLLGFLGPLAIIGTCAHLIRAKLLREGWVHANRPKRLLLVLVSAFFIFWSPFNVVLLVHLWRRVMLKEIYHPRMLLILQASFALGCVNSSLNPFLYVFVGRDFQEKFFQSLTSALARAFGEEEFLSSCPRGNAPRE
Summary of the method: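 Engineered CHO-K1 line co-expressing GPR32-ProLink and EA-beta-arrestin. Compound treatment lasted 90 min at 37 °C. Luminescence was recorded after 1 h with substrate at ambient temperature, relative to DMSO basal wells.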
`CCOC(=O)c1cnc2ccc(OC)cc2c1Nc1ccc(OCc2ccccc2Cl)cc1` was tested, and the activation was inactive: -3.13%. For `Cc1ccc(NC(=O)CCC(=O)N2Cc3ccccc3Oc3ncccc32)cc1Cl`, the activation was inactive: -16.9%. For `COc1ccc(CNC(=O)c2cnc(N3CCCC3)nc2C)c(OC)c1`, the activation was inactive: -9.32%. With `COc1ccc(C)cc1NC(=O)c1nnn(Cc2cccc(Br)c2)c1N` the activation was inactive: 42.1%. With `COc1ccc(C2=NS(=O)(=O)N(C)C(C(=O)NC(C)c3ccccc3)=C2)cc1` (stereo not drawn) the activation was inactive: -21.4%. In the case of `COc1ccc(-c2nc3sc(CCNC(=O)Cc4ccccc4)c(C)n3n2)cc1`, the activation is reported as inactive: -14.6%. For `CCOC(=O)c1cc(-c2ccccc2)n(CCC(=O)NCCc2ccccc2)c1C`, the activation was inactive: -25.9%. `CCN(C(=O)CSc1nc2ccccc2n1CC(=O)N(C)C1CCCCC1)c1ccccc1` was tested, and the activation was inactive: 0.241%. `CCCS(=O)(=O)N1CCC(n2c(C)nc3cccnc32)CC1` was tested, and the activation was inactive: 19.6%. `CCN(CC)S(=O)(=O)c1ccc2c(c1)N(CC(=O)NCCCN1CCN(c3ccc(OC)cc3)CC1)C(=O)CO2` was tested, and the activation was inactive: -11.9%. For `Cc1ccc2oc(C(=O)Nc3ccc(S(=O)(=O)N4CCCCC4C)cc3)cc(=O)c2c1` (stereo not drawn), the activation was inactive: -8.31%. In the case of `CCc1ccc(C(=O)c2cn(CC(=O)Nc3cc(OC)ccc3OC)c3ccc(Cl)cc3c2=O)cc1`, the activation is reported as inactive: 40.4%. In the case of `COc1ccccc1C(=O)OCc1cc(=O)n2nc(C3CCCCC3)sc2n1`, the activation is reported as inactive: 0.859%. With `Cc1cccc(NC(=O)CN2C(=O)c3ccccc3Sc3ncccc32)c1C` the activation was inactive: -6.59%. With `CCn1c(NCc2ccc(OC)c(OC)c2)nc2ccccc21` the activation was inactive: -0.545%. For `OC[C@H]1O[C@@H](n2cnc3c(Nc4ccccc4)ncnc32)[C@H](O)[C@@H]1O`, the activation was inactive: 2.49%. With `Cc1noc2ncnc(N3CCCC(C(=O)NC(C)C)C3)c12` (stereo not drawn) the activation was inactive: 16.6%. `Cc1ccc(Cl)cc1N1CCN(CCCNc2ncnc3onc(-c4ccc(Cl)cc4)c23)CC1` was tested, and the activation was inactive: -1.17%. `COc1ccc(CCNC(=O)CSC2=Nc3ccccc3C3=NC(CCC(=O)NCc4ccccc4)C(=O)N23)cc1OC` (stereo not drawn) was tested, and the activation was inactive: -2.12%. `CCOc1ccccc1CNC(=O)c1ccc2c(c1)sc1nc(-c3ccccc3)cn12` was tested, and the activation was inactive: -9.3%. With `Cc1cccc(CCNC(=O)C2CCN(c3ncnc4c3nc3n4CCCCC3)CC2)c1` the activation was inactive: -0.0195%. `C/C(=C\c1ccc(C(=O)O)cc1)c1ccc2c(c1)C(C)(C)CCC2(C)C` was tested, and the activation was inactive: -10.8%. With `CCOC(=O)c1cc(-c2ccccc2)n(CCC(=O)Nc2cc(OCC)ccc2OCC)c1C` the activation was inactive: -20.7%. For `CCCCCn1c(CCCNC(=O)c2cccc(C)c2)nc2ccccc21`, the activation was inactive: -6.6%. In the case of `Nc1ccc(CCNc2ncnc3c2ncn3C2OC(CO)C(O)C2O)cc1` (stereo not drawn), the activation is reported as inactive: -6.28%. `COc1ccc(OC)c(CNC(=O)c2cc3ccc4cccnc4c3[nH]2)c1` was tested, and the activation was inactive: -10.3%. `Cc1nn2c(=O)cc(COC(=O)c3ccc(NC(=O)COc4ccc(Cl)cc4)cc3)nc2s1` was tested, and the activation was inactive: 19.7%. In the case of `CCn1nnc2cc(C(=O)Nc3ccc(C)cc3Br)ccc21`, the activation is reported as inactive: -0.117%. In the case of `CC1CCN(S(=O)(=O)c2ccc3nc(NCc4ccc(F)cc4)ccc3c2)CC1`, the activation is reported as inactive: 1.71%. `COc1ccc(C)cc1NC(=O)C(=O)NCCc1csc2nc(-c3ccccc3F)nn12` was tested, and the activation was inactive: -10.9%. For `O=c1c2oc3ccccc3c2n(Cc2ccccc2)c(=O)n1Cc1ccco1`, the activation was inactive: -6.75%. `O=C(Cn1nnc2sc(-c3ccccc3)cc2c1=O)Nc1cccc(C(F)(F)F)c1` was tested, and the activation was inactive: -31.1%. `CC(C)(C)OC(=O)N1CCC(c2nnc(SCc3ccccc3F)o2)CC1` was tested, and the activation was inactive: 7.61%. `CCOc1ccc(CCNc2ncnc3onc(-c4ccc(Cl)cc4)c23)cc1` was tested, and the activation was inactive: -3.07%. In the case of `Cc1cccc(-c2nc3scc(CCNS(=O)(=O)c4ccc(F)cc4C)n3n2)c1`, the activation is reported as inactive: 2.94%. With `Cc1ccc(NC(=O)c2cc(S(=O)(=O)NCCC3=CCCCC3)ccc2F)cc1C` the activation was inactive: -22.8%. With `CCc1ccccc1NC(=O)CN(c1ccc(OC)cc1)S(=O)(=O)c1c(C)n[nH]c1C` the activation was inactive: -1.17%. In the case of `Cc1c(NC(=O)c2cc(-c3ccc(Br)cc3)on2)c(=O)n(-c2ccccc2)n1C`, the activation is reported as inactive: 1.83%. In the case of `Cc1oc(-c2ccccc2)nc1CNC(=O)NC1CCCCC1`, the activation is reported as inactive: -14.7%. `COc1ccc(Nc2sc(C(=O)c3ccccc3)c(N)c2C(=O)Nc2cc(C)ccc2C)c(OC)c1` was tested, and the activation was inactive: 3.1%. With `Cc1ccn2c(c1)nc(=O)c1cc(S(=O)(=O)N3CCCCC3)c(Cl)cc12` the activation was inactive: -7.95%. `CCc1ccc(NC(=O)c2sc3nc(C)c(C(=O)Nc4ccc(C)cc4C)c(-c4ccco4)c3c2N)cc1` was tested, and the activation was inactive: -3.78%. For `CCOC(=O)c1c(NC(=O)/C=C/c2ccc(OCC)c(OC)c2)sc2c1CCC2`, the activation was inactive: -5.26%. `COc1cccc(CNC(=O)CCCN2C(=O)CSc3c2c(C)nn3-c2ccccc2)c1OC` was tested, and the activation was inactive: -15.9%. In the case of `CCN1C(=O)c2ccccc2S(=O)c2ccc(C(=O)N3CCN(c4ccccc4)CC3)cc21` (stereo not drawn), the activation is reported as inactive: -16%. With `Cc1ccc(S(=O)(=O)c2nnn3c2nc(N2CCC(C)CC2)c2cc(Cl)ccc23)cc1C` the activation was inactive: -3.04%. For `COc1ccc(-c2nc3nc(C)cc(Nc4cccc(C(F)(F)F)c4)n3n2)cc1`, the activation was inactive: -4.81%. For `Cc1ccc(CNC(=O)Cn2cc(S(=O)(=O)Cc3cccc(Cl)c3)c3ccccc32)cc1`, the activation was inactive: 40.2%. In the case of `COc1ccc(NC(=O)COc2ccc(S(=O)(=O)NC3CCCCC3)cc2)c(OC)c1`, the activation is reported as inactive: -1.18%. For `O=C(CCCc1nc(-c2ccccc2)no1)Nc1cc(C(F)(F)F)cc(C(F)(F)F)c1`, the activation was inactive: 21.7%. In the case of `O=C(Nc1nnc(S(=O)(=O)N2CCCCC2)s1)c1ccc(F)cc1`, the activation is reported as inactive: 13.3%. In the case of `Cc1cc(C)c(Cn2c3ccccc3c3cnn(CC(=O)NCc4ccc(Cl)cc4)c(=O)c32)c(C)c1`, the activation is reported as inactive: -14.2%. With `Cc1noc(Cn2c(=O)c3ccccc3n(CC(=O)Nc3ccc(F)cc3F)c2=O)n1` the activation was inactive: -19.5%. `CC1=C(C(=O)Nc2ccccc2C)C(c2ccco2)n2ncnc2N1` (stereo not drawn) was tested, and the activation was inactive: 8.27%. For `CCOc1ccc(NC(=O)c2cc(S(=O)(=O)N3CCCC3)c[nH]2)cc1`, the activation was inactive: -4.55%. `Cc1sc(-n2cccc2)c(C(C)NC(=O)Nc2ccccc2Cl)c1C` (stereo not drawn) was tested, and the activation was inactive: -16.7%. For `COC(=O)c1ccccc1NC(=O)c1cc2c(s1)-c1ccccc1OC2`, the activation was inactive: -1.2%. `CCOc1ccc(CCNC(=O)c2ccc3c(c2)N(Cc2ccccc2)C(=O)c2ccccc2S3=O)cc1OCC` (stereo not drawn) was tested, and the activation was inactive: -9.2%. `O=C(CN(c1cc(C(F)(F)F)ccc1Cl)S(=O)(=O)c1ccccc1)NCCc1ccccc1` was tested, and the activation was inactive: -1.86%. In the case of `COc1ccc(-c2c(C#N)c(SCC(=O)Nc3ccc(Br)cc3)nc(C)c2C(=O)Nc2ccccc2)cc1`, the activation is reported as inactive: -22%. For `OC(CN1CCN(c2cccc(Cl)c2)CC1)C(c1ccccc1)c1ccccc1` (stereo not drawn), the activation was inactive: 6.8%. In the case of `O=C(CSc1nc(-c2ccccc2)c2ccccc2n1)Nc1ccc(F)cc1`, the activation is reported as inactive: -9.69%. For `CC1=C(C(=O)N2CCCCC2)C(c2cccc(Cl)c2)n2c(nc3ccccc32)N1` (stereo not drawn), the activation was inactive: -9.62%. For `Cc1cc(C)c(S(=O)(=O)NCCc2cc3ccc(C)cc3[nH]c2=O)c(C)c1`, the activation was inactive: -4.41%. With `CCN(CC)CCCNC(=O)C1CCN(S(C)(=O)=O)CC1` the activation was inactive: -0.0455%. For `Cc1c(C)n(Cc2ccccc2)c2ccc(C(=O)NCc3ccc(OC(C)C)cc3)cc12`, the activation was inactive: -15.9%. In the case of `CCc1nnc2c3ccccc3nc(Nc3ccccc3OC)n12`, the activation is reported as inactive: -9.08%. In the case of `Cc1cccc(N2CCN(S(=O)(=O)c3ccc4oc(=O)c5ncn(C)c5c4c3)CC2)c1C`, the activation is reported as inactive: 9.09%. With `O=C(CCCCn1c(=O)c2ccccc2n(CC(=O)Nc2ccccc2)c1=O)NCc1ccccc1Cl` the activation was inactive: 3.31%. In the case of `CCOc1ccc(C(=O)Nc2ccc(-c3nc4cc(C)ccc4o3)cc2)cc1`, the activation is reported as inactive: -0.698%. For `CCOC(=O)c1sc(NC(=O)C(C)Sc2nc(-c3ccccc3)cc(C(F)(F)F)n2)c(C(=O)OC)c1C` (stereo not drawn), the activation was inactive: 7.2%. With `Cc1oc(-c2ccc(C(=O)Nc3cccc(C(F)(F)F)c3)cc2)nc1CSc1ccccc1` the activation was inactive: -16.3%. With `COc1ccc(Nc2nc3ccc(Cl)cc3n3nnnc23)cc1OC` the activation was inactive: 1.65%. `CCCC(=O)C1=C(c2ccc(C)cc2)N(C(=O)CCC)n2cnnc2S1` was tested, and the activation was inactive: -46.6%. In the case of `COc1ccc(-c2nc3scc(CCNS(=O)(=O)c4ccc(F)c(C(F)(F)F)c4)n3n2)cc1OC`, the activation is reported as inactive: -9.69%. With `CCN1CCN(c2cc(C)c3cc(NC(=O)c4cccc(Cl)c4)ccc3n2)CC1` the activation was inactive: -16.6%. In the case of `O=C(Oc1ccccc1Cl)c1cc(-c2ccc3c(c2)OCCO3)on1`, the activation is reported as inactive: 2.04%. In the case of `Cc1ccc(NC(=O)c2cnc(N3CCCCC3)c3ccccc23)cc1Cl`, the activation is reported as inactive: -23.5%. `Cc1ccc(OCCn2cc(C(=O)c3ccco3)c3ccccc32)cc1C` was tested, and the activation was inactive: -12.1%. For `Cc1n[nH]c(C)c1CCc1nc2c3ccccc3nc(SCC(=O)Nc3ccc(F)cc3)n2n1`, the activation was active: 72%. `COC(=O)c1scc(-c2ccc(C)cc2)c1S(=O)(=O)Nc1cccc(Cl)c1C` was tested, and the activation was inactive: -15.6%. In the case of `COc1cccc(N2CCN(C(=O)C3CCN(S(=O)(=O)c4cn(C)cn4)CC3)CC2)c1`, the activation is reported as inactive: 1.61%. With `CCOCCn1c(=O)c2c(nc3n2CCN3c2ccc(C)c(C)c2)n(C)c1=O` the activation was inactive: -11.4%.
